Test results from the supplement of paper PMC4604168 (melanoma cell lines).
Some of the results follow. Most values come without repeats; read them as rough.

system: LOXIMVI; test: cell count relative to DMSO control; melanoma cells; higher = more viable cells; settings: library dose: standard library concentration; 72 h
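Also: cells treated in 1,536-well plates, then fixed and DAPI-stained, with nuclei counted from automated high-throughput microscope images.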

Row | SMILES | cell count [%]
1 | O=c1[nH]nc(Sc2ncc([N+](=O)[O-])s2)n1-c1ccc2c(c1)OCCO2 + CC(C)C[C@H](NC(=O)[C@H](Cc1ccccc1)NC(=O)c1cnccn1)B(O)O [Bortezomib] (first compound 1 µM, partner dose 0.005 µM) | 15.9
2 | O=c1[nH]nc(Sc2ncc([N+](=O)[O-])s2)n1-c1ccc2c(c1)OCCO2 + CCc1ccc(CCOc2ccc(CC3SC(=O)NC3=O)cc2)nc1 [pioglitazone] (first compound 1 µM, partner dose 10 µM) | 89.6
3 | C[C@@H]1CCN(C(=O)CC#N)C[C@@H]1N(C)c1ncnc2[nH]ccc12 + COc1ccc(-c2ccc3c(N4CCOCC4)nc(N4C[C@@H](C)O[C@@H](C)C4)nc3n2)cc1CO [KU0063794] (first compound 5 µM, partner dose 0.1 µM) | 74.3
4 | C[C@@H]1CCN(C(=O)CC#N)C[C@@H]1N(C)c1ncnc2[nH]ccc12 + O=S(=O)(c1ccccc1)N(CC(F)(F)F)c1ccc(C(O)(C(F)(F)F)C(F)(F)F)cc1 [T0901317] (first compound 5 µM, partner dose 7 µM) | 89.5

system: MEL-HO; test: as above; settings: library dose: standard library concentration; 72 h

Row | SMILES | cell count [%]
5 | O=c1[nH]nc(Sc2ncc([N+](=O)[O-])s2)n1-c1ccc2c(c1)OCCO2 + Cn1nnc2c(C(N)=O)ncn2c1=O [temozolomide] (first compound 1 µM, partner dose 10 µM) | 78.3
6 | Cn1cncc1[C@@](N)(c1ccc(Cl)cc1)c1ccc2c(c1)c(-c1cccc(Cl)c1)cc(=O)n2C [tipifarnib] + O=C(O)C(=O)Nc1sc2c(c1C(=O)O)CCNC2 [TCS401] (first compound 0.05 µM, partner dose 8.33333 µM) | 94.6
7 | O=C(Nc1cccc(Cl)c1)Nc1ncc(CCNc2ncnc3ccsc23)s1 + CCc1ccc(CCOc2ccc(CC3SC(=O)NC3=O)cc2)nc1 [pioglitazone] (first compound 0.004 µM, partner dose 10 µM) | 75.5
8 | O=c1[nH]nc(Sc2ncc([N+](=O)[O-])s2)n1-c1ccc2c(c1)OCCO2 + O=C(O)c1ccc(-c2c[nH]c3ncc(-c4ccccc4)cc23)cc1C1CCCC1 [GSK650394] (first compound 1 µM, partner dose 0.8 µM) | 75.4
9 | O=c1[nH]nc(Sc2ncc([N+](=O)[O-])s2)n1-c1ccc2c(c1)OCCO2 + O=C(Nc1cccc(Cl)c1)Nc1ncc(CCNc2ncnc3ccsc23)s1 [SNS314] (first compound 1 µM, partner dose 0.004 µM) | 80.4
10 | COc1cc(Nc2ncc(F)c(Nc3ccc4c(n3)NC(=O)C(C)(C)O4)n2)cc(OC)c1OC [Tamatinib] + CCCCCCCCCCCC1=C(O)C(=O)C=C(O)C1=O [Embelin] (first compound 2 µM, partner dose 6 µM) | 70.3
11 | CC1(C)NC(=O)N(c2ccc([N+](=O)[O-])c(C(F)(F)F)c2)C1=O [nilutamide] + O=C1NC(=O)/C(=C/c2ccc(-c3ccc(F)cc3O)o2)S1 [AS252424] (first compound 5 µM, partner dose 5 µM) | 85.1
12 | Cn1cncc1[C@@](N)(c1ccc(Cl)cc1)c1ccc2c(c1)c(-c1cccc(Cl)c1)cc(=O)n2C [tipifarnib] + O=C(Nc1ccccc1)c1cc([N+](=O)[O-])ccc1Cl [GW9662] (first compound 0.05 µM, partner dose 10 µM) | 84.8
13 | O=c1[nH]nc(Sc2ncc([N+](=O)[O-])s2)n1-c1ccc2c(c1)OCCO2 + C[C@@H](N)c1ccc(C(=O)Nc2ccnc3[nH]ccc23)cc1 [RKI983] (first compound 1 µM, partner dose 2 µM) | 65.1
14 | O=C(O)c1ccc(-c2c[nH]c3ncc(-c4ccccc4)cc23)cc1C1CCCC1 + COc1cc(N2CCC(N3CCN(C)CC3)CC2)ccc1Nc1ncc(Cl)c(Nc2ccccc2S(=O)(=O)C(C)C)n1 [NVP-TAE684] (first compound 0.8 µM, partner dose 0.4 µM) | 65.1
15 | O=c1[nH]nc(Sc2ncc([N+](=O)[O-])s2)n1-c1ccc2c(c1)OCCO2 + COc1cc(Nc2ncc(F)c(Nc3ccc4c(n3)NC(=O)C(C)(C)O4)n2)cc(OC)c1OC [Tamatinib] (first compound 1 µM, partner dose 2 µM) | 85.8
16 | O=c1[nH]nc(Sc2ncc([N+](=O)[O-])s2)n1-c1ccc2c(c1)OCCO2 + COc1cc(N2CCC(N3CCN(C)CC3)CC2)ccc1Nc1ncc(Cl)c(Nc2ccccc2S(=O)(=O)C(C)C)n1 [NVP-TAE684] (first compound 1 µM, partner dose 0.4 µM) | 77.4
17 | COc1cc(Nc2ncc(F)c(Nc3ccc4c(n3)NC(=O)C(C)(C)O4)n2)cc(OC)c1OC [Tamatinib] + CC1(C)NC(=O)N(c2ccc([N+](=O)[O-])c(C(F)(F)F)c2)C1=O [nilutamide] (first compound 2 µM, partner dose 5 µM) | 70
18 | O=C(O)c1ccc(-c2c[nH]c3ncc(-c4ccccc4)cc23)cc1C1CCCC1 + COc1ccc2c(c1)CCC1C2CCC2(C)C(NCCCCCCN3C(=O)C=CC3=O)CCC12 [U73122] (first compound 0.8 µM, partner dose 2 µM) | 69.8
19 | O=c1[nH]nc(Sc2ncc([N+](=O)[O-])s2)n1-c1ccc2c(c1)OCCO2 + CO[C@@H]1[C@H](N(C)C(=O)c2ccccc2)C[C@H]2O[C@]1(C)n1c3ccccc3c3c4c(c5c6ccccc6n2c5c31)C(=O)NC4 [Midostaurin] (first compound 1 µM, partner dose 0.4 µM) | 75
20 | Cn1cncc1[C@@](N)(c1ccc(Cl)cc1)c1ccc2c(c1)c(-c1cccc(Cl)c1)cc(=O)n2C [tipifarnib] + NCC(=O)Nc1ccc(-n2nc(C(F)(F)F)cc2-c2ccc3c(ccc4ccccc43)c2)cc1 [OSU03012] (first compound 0.05 µM, partner dose 5 µM) | 78.6
21 | C[C@@H]1CCN(C(=O)CC#N)C[C@@H]1N(C)c1ncnc2[nH]ccc12 + Cc1cc([N+](=O)[O-])ccc1NS(=O)(=O)c1cc(Cl)ccc1Cl [FH535] (first compound 5 µM, partner dose 5 µM) | 56.3
22 | CC1(C)NC(=O)N(c2ccc([N+](=O)[O-])c(C(F)(F)F)c2)C1=O [nilutamide] + N#Cc1c(O)c2c(-c3ccc(-c4ccccc4O)cc3)csc2[nH]c1=O [A769662] (first compound 5 µM, partner dose 10 µM) | 91.6
23 | O=c1[nH]nc(Sc2ncc([N+](=O)[O-])s2)n1-c1ccc2c(c1)OCCO2 + Cc1ccc(Nc2nccc(N(C)c3ccc4c(C)n(C)nc4c3)n2)cc1S(N)(=O)=O [Pazopanib] (first compound 1 µM, partner dose 2 µM) | 93.8
24 | O=C(Nc1cccc(Cl)c1)Nc1ncc(CCNc2ncnc3ccsc23)s1 + Oc1cc(-c2nc(-c3ccccc3)[nH]c2-c2ccncc2)ccc1Cl [L779450] (first compound 0.004 µM, partner dose 1 µM) | 66.1
25 | COc1cc(Nc2ncc(F)c(Nc3ccc4c(n3)NC(=O)C(C)(C)O4)n2)cc(OC)c1OC [Tamatinib] + CCN(CC)CCCCNc1ncc2cc(-c3cc(OC)cc(OC)c3)c(NC(=O)NC(C)(C)C)nc2n1 [PD173074] (first compound 2 µM, partner dose 0.5 µM) | 79.6
26 | O=c1[nH]nc(Sc2ncc([N+](=O)[O-])s2)n1-c1ccc2c(c1)OCCO2 + Nc1ncn([C@H]2C[C@H](O)[C@@H](CO)O2)c(=O)n1 [decitabine] (first compound 1 µM, partner dose 0.5 µM) | 66.5
27 | O=c1[nH]nc(Sc2ncc([N+](=O)[O-])s2)n1-c1ccc2c(c1)OCCO2 + C[C@]1(O)C[C@@H](c2nc(-c3ccc4ccc(-c5ccccc5)nc4c3)c3c(N)nccn32)C1 [OSI906] (first compound 1 µM, partner dose 2 µM) | 87
28 | O=c1[nH]nc(Sc2ncc([N+](=O)[O-])s2)n1-c1ccc2c(c1)OCCO2 + CCCCCCCCc1ccc(CCC(N)(CO)CO)cc1 [fingolimod] (first compound 1 µM, partner dose 10 µM) | 1.53
29 | O=c1[nH]nc(Sc2ncc([N+](=O)[O-])s2)n1-c1ccc2c(c1)OCCO2 + COc1ccc(-c2ccc3c(N4CCOCC4)nc(N4C[C@@H](C)O[C@@H](C)C4)nc3n2)cc1CO [KU0063794] (first compound 1 µM, partner dose 0.1 µM) | 83.6
30 | COc1cc(Nc2ncc(F)c(Nc3ccc4c(n3)NC(=O)C(C)(C)O4)n2)cc(OC)c1OC [Tamatinib] + c1cc(-c2cnn3cc(-c4ccc(OCCN5CCCCC5)cc4)cnc23)ccn1 [Dorsomorphin] (first compound 2 µM, partner dose 2 µM) | 62.4
31 | O=C(Nc1cccc(Cl)c1)Nc1ncc(CCNc2ncnc3ccsc23)s1 + O=C1NC(=O)/C(=C/c2ccc(-c3ccc(F)cc3O)o2)S1 [AS252424] (first compound 0.004 µM, partner dose 5 µM) | 52.8
32 | CC1(C)NC(=O)N(c2ccc([N+](=O)[O-])c(C(F)(F)F)c2)C1=O [nilutamide] + Oc1cc(-c2nc(-c3ccccc3)[nH]c2-c2ccncc2)ccc1Cl [L779450] (first compound 5 µM, partner dose 1 µM) | 87
